Data: the supplement of paper PMC6206098
± gives the uncertainty stated by the source. Shown are siRNA guide strands that differ only in the seed, positions 2 to 7.

Key:
3LL = test: cell viability relative to siNT1 control; higher = less toxic; conditions: concentration: 10 nM; 96 h; Mus musculus;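 note: Luminescence-based viability of cells reverse transfected in 384-well plates with lipid-complexed siRNAs built on a non-toxic 19mer backbone whose passenger strand carries 2′-O-methyl groups at positions 1 and 2, triplicates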
M565 = test: cell viability relative to lipid-only control; HeyA8 human ovarian and H460 human lung cancer; M565 mouse liver and 3LL mouse lung cancer; siNT1 is a non-toxic control siRNA; higher = less toxic; conditions: concentration: 10 nM; 96 h; Mus musculus
HeyA8 = test: as above; conditions: concentration: 10 nM; 96 h; Homo sapiens
H460 = test: as above; conditions: concentration: 10 nM; 96 h; Homo sapiens
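Throughout, for cell viability relative to lipid-only control: reverse lipid transfection in 384-well plates, in triplicate, of duplexes on a non-toxic 19mer backbone with passenger strand 2′-O-methylated at positions 1 and 2, luminescence viability read-out.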

Sequence | cell viability (3LL) | cell viability (M565) | cell viability (HeyA8) | cell viability (H460)
UGUGGCUACAUGUAAACCAAA | 5.69 ± 3.2% | 14.1 ± 4.3% | 40.5 ± 0.98% | 39.5 ± 2.7%
UGUGGGAACAUGUAAACCAAA | 15.9 ± 3.6% | 36.2 ± 5.7% | 16.4 ± 1.5% | 28.5 ± 0.71%
UGUGGGCACAUGUAAACCAAA | 39.8 ± 10% | 15.5 ± 2.9% | 2.77 ± 0.34% | 16.3 ± 0.32%
UGUGGGGACAUGUAAACCAAA | 13.7 ± 4% | 7.71 ± 4.2% | 3.28 ± 0.59% | 20.3 ± 1.6%
UGUGGGUACAUGUAAACCAAA | 9.28 ± 2.4% | 11 ± 1.8% | 3.88 ± 0.41% | 10.5 ± 2.7%
UGUGGUAACAUGUAAACCAAA | 51.2 ± 16% | 54.7 ± 5.1% | 62.6 ± 12% | 61 ± 7.5%
UGUGGUCACAUGUAAACCAAA | 15.9 ± 6.4% | 30.8 ± 7.4% | 30.2 ± 2.6% | 21.6 ± 2.3%
UGUGGUGACAUGUAAACCAAA | 8.09 ± 3.1% | 35.2 ± 3.1% | 23.6 ± 2.1% | 16.7 ± 1.3%
UGUGGUUACAUGUAAACCAAA | 18.7 ± 5.5% | 64.5 ± 11% | 60.5 ± 8.3% | 47.5 ± 1.6%
UGUGUAAACAUGUAAACCAAA | 92.1 ± 3.9% | 56.6 ± 7.6% | 63.8 ± 3.3% | 62.6 ± 5.8%
UGUGUACACAUGUAAACCAAA | 45.6 ± 8.1% | 23.4 ± 0.3% | 43.5 ± 2.1% | 49.3 ± 4.7%
UGUGUAGACAUGUAAACCAAA | 30.7 ± 11% | 18.6 ± 9.8% | 57.5 ± 9.8% | 55.3 ± 7.6%
UGUGUAUACAUGUAAACCAAA | 64.5 ± 12% | 12.4 ± 3% | 36.1 ± 4.3% | 55.5 ± 2.6%
UGUGUCAACAUGUAAACCAAA | 48.6 ± 10% | 38.1 ± 2.9% | 73.5 ± 8.4% | 64.2 ± 6.8%
UGUGUCCACAUGUAAACCAAA | 29.8 ± 14% | 22.9 ± 4% | 37.4 ± 3% | 34.6 ± 5.8%
UGUGUCGACAUGUAAACCAAA | 29.3 ± 6.4% | 50.3 ± 10% | 43.8 ± 5.6% | 49.6 ± 5.4%
UGUGUCUACAUGUAAACCAAA | 14.9 ± 9.3% | 35.5 ± 6.8% | 19 ± 3.5% | 48.5 ± 2.3%
UGUGUGAACAUGUAAACCAAA | 72.7 ± 4% | 52.9 ± 9.8% | 44.7 ± 5.6% | 54.2 ± 4.1%
UGUGUGCACAUGUAAACCAAA | 16.7 ± 5.7% | 23.1 ± 6.5% | 11.7 ± 0.26% | 25.1 ± 1%
UGUGUGGACAUGUAAACCAAA | 29.5 ± 7.2% | 12.8 ± 3.5% | 17.6 ± 1.9% | 19.9 ± 0.94%

Sequence | cell viability (3LL) | cell viability (M565) | cell viability (HeyA8) | cell viability (H460)
UGUGUGUACAUGUAAACCAAA | 16.3 ± 7.1% | 17.2 ± 3.9% | 30.3 ± 2% | 41.6 ± 5.5%
UGUGUUAACAUGUAAACCAAA | 78.9 ± 3.8% | 52.8 ± 11% | 69.1 ± 10% | 56.2 ± 8.4%
UGUGUUCACAUGUAAACCAAA | 58.3 ± 12% | 49.9 ± 6.7% | 7.29 ± 0.15% | 51.6 ± 3.7%
UGUGUUGACAUGUAAACCAAA | 82.1 ± 6% | 30.5 ± 6.7% | 26 ± 8.8% | 81.4 ± 3.9%
UGUGUUUACAUGUAAACCAAA | 42.5 ± 3% | 18.1 ± 3.3% | 33.8 ± 0.53% | 49.5 ± 11%
UGUUAAAACAUGUAAACCAAA | 95.5 ± 4% | 63 ± 8.1% | 85.1 ± 13% | 61.9 ± 3.5%
UGUUAACACAUGUAAACCAAA | 98.2 ± 7.1% | 55.8 ± 8.4% | 61.6 ± 15% | 64.8 ± 4%
UGUUAAGACAUGUAAACCAAA | 86.6 ± 5.5% | 71.4 ± 7.8% | 67.3 ± 5.8% | 64.7 ± 6.7%
UGUUAAUACAUGUAAACCAAA | 88.2 ± 4.8% | 49.4 ± 5.8% | 68.4 ± 2.9% | 55.9 ± 1.8%
UGUUACAACAUGUAAACCAAA | 89.6 ± 4.4% | 58.9 ± 11% | 44 ± 7.3% | 56.7 ± 3.1%
UGUUACCACAUGUAAACCAAA | 11.1 ± 6% | 9.86 ± 2.8% | 12.1 ± 1.1% | 34.3 ± 3.1%
UGUUACGACAUGUAAACCAAA | 101 ± 12% | 63.7 ± 9% | 83.1 ± 11% | 63.3 ± 2.6%
UGUUACUACAUGUAAACCAAA | 95 ± 6% | 40.9 ± 10% | 16.5 ± 1.1% | 38.6 ± 4%
UGUUAGAACAUGUAAACCAAA | 58.2 ± 7.3% | 73.9 ± 20% | 63.2 ± 11% | 82.6 ± 11%
UGUUAGCACAUGUAAACCAAA | 2.3 ± 0.59% | 11.7 ± 4.6% | 14.7 ± 0.79% | 28.2 ± 2.7%
UGUUAGGACAUGUAAACCAAA | 27.7 ± 12% | 23.8 ± 4.2% | 41.3 ± 9.7% | 60.2 ± 3.9%
UGUUAGUACAUGUAAACCAAA | 15 ± 5.1% | 62.5 ± 13% | 47.6 ± 11% | 57.4 ± 6.7%
UGUUAUAACAUGUAAACCAAA | 88.2 ± 8.5% | 52.3 ± 18% | 91.7 ± 7.8% | 85.5 ± 16%
UGUUAUCACAUGUAAACCAAA | 67.3 ± 5.8% | 12.4 ± 4.6% | 50.3 ± 10% | 36.3 ± 0.45%
UGUUAUGACAUGUAAACCAAA | 88.7 ± 6.9% | 66.2 ± 14% | 90.5 ± 5.4% | 79.8 ± 9.2%

Sequence | cell viability (3LL) | cell viability (M565) | cell viability (HeyA8) | cell viability (H460)
UGUUAUUACAUGUAAACCAAA | 95.1 ± 8.2% | 66.1 ± 2% | 63.1 ± 6.7% | 66.3 ± 7.1%
UGUUCAAACAUGUAAACCAAA | 94.7 ± 8.4% | 33.5 ± 1.4% | 74.1 ± 6.5% | 87.3 ± 27%
UGUUCACACAUGUAAACCAAA | 93.4 ± 3.5% | 34.9 ± 6.6% | 8.23 ± 1.4% | 49.1 ± 5.3%
UGUUCAGACAUGUAAACCAAA | 89.2 ± 5% | 21.9 ± 5.9% | 66.9 ± 9.9% | 63.2 ± 3.1%
UGUUCAUACAUGUAAACCAAA | 92 ± 6.1% | 35.6 ± 2.3% | 70.7 ± 3.6% | 86.6 ± 12%
UGUUCCAACAUGUAAACCAAA | 20.7 ± 10% | 14.4 ± 2.1% | 13.9 ± 0.19% | 21.7 ± 8.3%
UGUUCCCACAUGUAAACCAAA | 26.1 ± 9% | 10.7 ± 3.2% | 32.9 ± 6.5% | 45.8 ± 0.97%
UGUUCCGACAUGUAAACCAAA | 61.3 ± 16% | 17.4 ± 2.6% | 13 ± 0.48% | 31.6 ± 5%
UGUUCCUACAUGUAAACCAAA | 23.1 ± 7.8% | 23.2 ± 1.3% | 8.94 ± 1% | 41.5 ± 10%
UGUUCGAACAUGUAAACCAAA | 94.3 ± 5.3% | 41.4 ± 7.4% | 79.8 ± 4.4% | 73.1 ± 16%
UGUUCGCACAUGUAAACCAAA | 84.6 ± 3% | 32.6 ± 6.9% | 57 ± 6.6% | 78.9 ± 2.5%
UGUUCGGACAUGUAAACCAAA | 99.7 ± 10% | 54.7 ± 12% | 87.5 ± 8.8% | 81 ± 9.4%
UGUUCGUACAUGUAAACCAAA | 92.3 ± 7.3% | 66.8 ± 10% | 67 ± 8.2% | 81.4 ± 11%
UGUUCUAACAUGUAAACCAAA | 96.4 ± 6.4% | 36.2 ± 4.7% | 86.6 ± 5.5% | 61.8 ± 4.8%
UGUUCUCACAUGUAAACCAAA | 42.5 ± 19% | 33.4 ± 6.1% | 30.2 ± 2.7% | 60.1 ± 7.4%
UGUUCUGACAUGUAAACCAAA | 88.1 ± 6.3% | 51.9 ± 5.9% | 69.3 ± 12% | 63 ± 5.5%
UGUUCUUACAUGUAAACCAAA | 82.4 ± 3.8% | 12.9 ± 4.3% | 65.4 ± 1.7% | 61.5 ± 11%
UGUUGAAACAUGUAAACCAAA | 102 ± 7.1% | 40.4 ± 1.2% | 89 ± 12% | 68.5 ± 8.2%
UGUUGACACAUGUAAACCAAA | 66.1 ± 14% | 14 ± 1.3% | 21.9 ± 5.5% | 33.2 ± 7.3%
